Experimental data reported in PubChem BioAssay AID624417 (National Center for Advancing Translational Sciences (NCATS), 2012).
Hit rate of the full screen: of about 410,000 compounds, about 6,400 (1.6%) were called active. Inconclusive means that the source gave no clear call. Such entries were picked first, then a sample of the others. Calls come from the whole dose curve; as a rule, active = well fitted inhibition curve with a large enough effect; inconclusive = small, poorly fitted or top-dose-only effect; inactive = no such curve, though single readings can be large or run the other way. Where the call is inconclusive, the potency comes from a doubtful curve fit.

What follows are molecules tested against Glucagon-like peptide 1 receptor (Homo sapiens) (UniProt P43220) (assay: qHTS of GLP-1 Receptor Inverse Agonists (Inhibition Mode)). Settings: HEK293 GLP-1R CRE-luciferase, luminescence, 24 h, GLP-1R form is constitutively active; activity change, negative = inhibition: at 38.3 µM (top of the series) unless noted.
Outline: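 Inverse agonists were sought by their lowering of basal cAMP reporter luciferase output in HEK293 cells stably carrying constitutively active human GLP-1R, after 24 h compound treatment.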
% is set by controls: 0 for no effect and ±100 for the full control effect; potency is the fitted concentration of half-maximal effect; tags give direction and shape of the fitted curve.
Note: nearly all actives have a fitted effect of over 55% in size.

Sequence of UniProt P43220 (P43220 whole entry, looked up): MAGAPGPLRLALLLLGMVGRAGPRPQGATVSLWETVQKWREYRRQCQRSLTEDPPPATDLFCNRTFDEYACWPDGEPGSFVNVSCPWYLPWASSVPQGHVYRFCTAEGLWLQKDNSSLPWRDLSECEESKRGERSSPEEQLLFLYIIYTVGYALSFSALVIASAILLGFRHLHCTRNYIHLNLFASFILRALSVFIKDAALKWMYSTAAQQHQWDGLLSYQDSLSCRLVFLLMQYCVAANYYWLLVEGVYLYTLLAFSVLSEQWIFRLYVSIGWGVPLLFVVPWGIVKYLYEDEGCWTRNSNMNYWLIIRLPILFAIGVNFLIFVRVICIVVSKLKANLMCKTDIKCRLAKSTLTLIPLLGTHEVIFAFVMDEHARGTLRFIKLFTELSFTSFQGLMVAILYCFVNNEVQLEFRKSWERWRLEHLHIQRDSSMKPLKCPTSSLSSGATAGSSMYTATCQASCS

Activity change, negative = inhibition, inactive:
COc1ccc(CCNC(=O)c2c(C)oc3ncnc(N4CCOCC4)c23)c(OC)c1 6.85%
COc1ccc(/C=C/C(=O)NC(=S)NN2CCCCC2c2cccnc2)cc1OC (stereo not drawn) 153%
CC(=O)Oc1cccc(N2C(=O)C3C4C=CC(C4=C(C)C)C3C2=O)c1 (stereo not drawn) -31.6%
COc1ccc(NC(=O)CN(C)C(=O)CNC(=O)c2ccc3ccccc3c2)cc1 16.7%
C=CCc1cccc2cc(C(=O)NCCc3c(C)[nH]c4c(C)cccc34)c(=O)oc12 -2.55%
CCC(=O)N(Cc1ccc(C)cc1)Cc1cc2cc3c(cc2[nH]c1=O)OCO3 0%
CCOC(=O)N1C/C(=C\c2ccccc2)C(=O)/C(=C/c2ccccc2)C1 2.42%
O=C1CSC(=S)N1/N=C/c1cc(Br)c(O)c(Br)c1 -14.9%
NS(=O)(=O)c1ccc(CCNC(=O)Cn2c(-c3cccs3)cc3ccccc32)cc1 -21.7%
Cc1ccc(C(=O)COC(=O)COc2ccccc2[N+](=O)[O-])s1 22.2%
CNC(=O)C[C@H]1C(=O)N(CCc2ccccc2)C[C@@H]1CSC 2.1%
Cc1cccc(N2CCN(S(=O)(=O)c3ccc(-c4cc(C(F)(F)F)on4)s3)CC2)c1C 2.29%
O=C(Cc1ccccc1)NCCn1ccc2ccccc21 15.4%

Potency, active:
C=C(C1=CCN(S(=O)C(C)(C)C)[C@H]1CCO)c1ccccc1 (stereo partly drawn) 11.2 µM
CCOc1ccc(N2CC(O)Cn3c2nc2c3c(=O)n(CCCc3ccccc3)c(=O)n2C)cc1 (stereo not drawn) 5.62 µM

Potency, inconclusive:
CC(C)(C)c1cnnn1-c1ccc(/C=N/Nc2ccc([N+](=O)[O-])cc2)cc1 2.82 µM [inhibitor, full curve, poor fit]
Cc1cc(C)cc(Nc2cc(C(=O)NC3CCC(C)CC3)c3ccccc3n2)c1 (stereo not drawn) 20 µM [inhibitor, single point]
COc1ccc(Cl)cc1-c1cc(C(=O)NCc2ccc(F)cc2)[nH]n1 28.2 µM [inhibitor, single point]
CC(=O)OC(COc1cccc(C)c1)Cn1cnc2ccccc21 (stereo not drawn) 31.6 µM [inhibitor, single point]
Cc1ccc2c(c1)N(C(=O)CCC(=O)NCc1cccc(Cl)c1)CC(C)O2 (stereo not drawn) 11.2 µM [inhibitor, partial curve, poor fit]
CNC(=S)N(CCc1c(C)[nH]c2ccc(C)cc12)Cc1cccs1 3.98 µM [inhibitor, full curve, poor fit]
c1ccc(C2=NNC(c3ccco3)=Nc3ccccc32)cc1 28.2 µM [inhibitor, single point]
COc1ccccc1C(=O)NC(C)c1cccc2ccccc12 (stereo not drawn) 10 µM [inhibitor, partial curve, poor fit]
COc1ccc(CCNC(=O)c2cc(-c3cc(Cl)ccc3O)n[nH]2)cc1OC 11.2 µM [inhibitor, single point]
CCOCCn1c(CN(Cc2ccccc2)Cc2ccccc2)nc2c1c(=O)n(C)c(=O)n2C 11.2 µM [inhibitor, partial curve, poor fit]
O=C(COC(=O)Cn1cnc2ccccc2c1=O)Nc1ccccc1Sc1ccc(Cl)cc1 14.1 µM [inhibitor, partial curve, poor fit]
COc1ccc(NC(=O)C(c2cc3c(cc2[N+](=O)[O-])OCO3)N(C)c2ccccc2)cc1 (stereo not drawn) 12.6 µM [inhibitor, partial curve, poor fit]
CN1CCN(S(=O)(=O)c2cccc(C(=O)NCCC3=CCCCC3)c2)CC1 14.1 µM [inhibitor, single point]
COc1ccc(-c2nc(CS(=O)CC(=O)NC3CCCCC3C)c(C)o2)cc1 (stereo not drawn) 10 µM [inhibitor, partial curve, poor fit]
COc1cc(/C=C2\SC(=S)N(NS(=O)(=O)c3ccccc3)C2=O)cc(OC)c1OC 12.6 µM [inhibitor, single point]
O=C(CSCc1cccc(Cl)c1)N1CCN(Cc2ccc3c(c2)OCO3)CC1 17.8 µM [inhibitor, partial curve, poor fit]
COc1ccc(-n2c(SCC(=O)Nc3ccc4c(c3)OCO4)nc3ccccc3c2=O)cc1 3.98 µM [inhibitor, full curve]
CC1CCCN(CCOCCOc2ccccc2-c2ccccc2)C1 (stereo not drawn) 28.2 µM [inhibitor, single point]
CCNC(=S)N(CCc1c(C)[nH]c2ccc(Cl)cc12)Cc1cccnc1 12.6 µM [inhibitor, partial curve]
Cc1ccc(S(=O)(=O)Oc2cccc([N+](=O)[O-])c2)cc1 11.2 µM [inhibitor, single point]
Cc1cc(C)nc(NC(N)=NCCc2ccccc2)n1 6.31 µM [inhibitor, partial curve, poor fit]
O=C(O)Cc1sc(-c2ccccc2)nc1-c1ccc(Cl)cc1 28.2 µM [inhibitor, single point]
Cc1cc2c(cc1C)NC(CC(=O)Nc1cccc(Cl)c1)C(=O)N2 (stereo not drawn) 28.2 µM [inhibitor, single point]
COc1ccc(Cl)cc1NC(=O)c1nnn(Cc2cccc(C(F)(F)F)c2)c1N 2 µM [inhibitor, full curve]
O=C(NC(c1cccnc1)C(F)(F)F)c1cc(COc2ccc3c(c2)CCCC3)on1 (stereo not drawn) 7.94 µM [inhibitor, partial curve]
CCOC(=O)N1CCC(NC(=O)c2cc(COc3c(C)cccc3C)on2)CC1 28.2 µM [inhibitor, single point]
COCCNC(=O)C12CC3CC(C1)CC(c1ccccc1)(C3)C2 6.31 µM [inhibitor, partial curve, poor fit]
C=CC[C@]12CCc3ccccc3C1N(c1ccc(C(=O)OCC)cc1)C2=O (stereo partly drawn) 28.2 µM [inhibitor, single point]
CCN1C(=O)[C@H]2[C@@H](c3ccc(SC4CCCCC4)c(OC)c3)N3CCCC[C@@]3(C(=O)OC)[C@H]2C1=O 11.2 µM [inhibitor, partial curve, poor fit]
CCN1CCN(c2nc(Nc3ccc(C)c(C)c3)nc(N)c2[N+](=O)[O-])CC1 22.4 µM [inhibitor, single point]
C#CCN1C(C)=C(C(=O)OC)C(c2cccc([N+](=O)[O-])c2)C(C(=O)OCC)=C1C (stereo not drawn) 11.2 µM [inhibitor, partial curve, poor fit]
CCC(C)Sc1oc(-c2ccco2)nc1S(=O)(=O)c1ccc(C)cc1 (stereo not drawn) 28.2 µM [inhibitor, single point]
CCC1CCCCN1S(=O)(=O)c1ccc(S(=O)(=O)N2CCN(S(=O)(=O)CC)CC2)cc1 (stereo not drawn) 8.91 µM [inhibitor, partial curve, poor fit]
S=C(Nc1ccc(Br)cc1)N1CCN(c2ccccn2)CC1 11.2 µM [inhibitor, partial curve, poor fit]
C=CC(c1ccccc1)C(C(=O)c1ccccc1)N(C)C (stereo not drawn) 4.47 µM [inhibitor, full curve]
CC(C)Cc1nc(N2CCOCC2)c(C#N)c2c1CCC2 11.2 µM [inhibitor, partial curve, poor fit]
Fc1ccc(CSc2ncnc3scc(-c4ccccc4)c23)cc1 28.2 µM [inhibitor, single point]
CN(Cc1cccc(F)c1)C(=O)c1ccc(S(=O)(=O)N2CCCCCC2)cc1 28.2 µM [inhibitor, single point]
CCOC(=O)C1CCN(Cc2cc(=O)oc3c(C)c(C)ccc23)CC1 7.94 µM [inhibitor, partial curve, poor fit]
CCCc1nc2cc(C)c(Br)c(C)n2c1Cc1ccccc1OC 11.2 µM [inhibitor, single point]
CCN(CC)CCN(C(=O)c1cc2c(ccc3ccccc32)oc1=O)c1nc2cc3c(cc2s1)OCCO3 12.6 µM [inhibitor, single point]
OC(c1cc(C(F)(F)F)nc2c(Cl)cc(Cl)cc12)C1CCCCN1 (stereo not drawn) 7.08 µM [inhibitor, partial curve, poor fit]
Cc1ccc(NCc2nnc(SCC(=O)N(Cc3ccccc3)C(C)(C)C)o2)c(C)c1 10 µM [inhibitor, partial curve, poor fit]
CCN1CCN(c2ccc(S(=O)(=O)N3CCCCC3)cc2NC(=O)COc2ccccc2)CC1 28.2 µM [inhibitor, single point]
CCC(C(=O)O/N=C(\N)c1ccc(C)cc1)c1ccccc1 (stereo not drawn) 31.6 µM [inhibitor, single point]
COc1ccccc1NC(=S)N(CCN1CCCCCC1)Cc1cccs1 28.2 µM [inhibitor, single point]
COc1ccc(Cl)cc1Nc1nc(C)cc(=O)[nH]1 6.31 µM [inhibitor, partial curve, poor fit]
CCc1ccccc1NC(=O)Nc1nnc(N(C)Cc2ccccc2)s1 2.82 µM [inhibitor, partial curve, poor fit]
